Key:
Format in all cases: in vivo
Botrytis cinerea = assay: Test Example B: Gray mold on tomato; conditions: for Test B control value (gray mold on tomato) / Test B (control value class): 250 ppm spray; for Test B control value (gray mold on tomato): preventive, control value class; for Test B (control value class): gray mold on tomato, Botrytis cinerea; for Test B control value: Gray mold on tomato; for Test B (control value class, gray mold on tomato): in vivo
From the text: [Test Example B] Gray Mold on Tomato
Seeds of a test plant (tomato variety: Oogata Fukuju) were planted followed by cultivating until three to five first leaves (true leaves) appeared.

Puccinia recondita = assay: Test Example E: Brown rust on wheat; conditions: for Test E control value (brown rust on wheat) / Test E (control value class): 250 ppm spray; for Test E control value (brown rust on wheat): preventive, control value class; for Test E (control value class): brown rust on wheat, Puccinia recondita; for Test E control value: Brown rust on wheat; for Test E (control value class, brown rust on wheat): in vivo
From the text: [Test Example E] Brown Rust on Wheat

Alternaia brassicicola = assay: Test Example C: Alternaria sooty spot on cabbage; conditions: for Test C control value (Alternaria sooty spot on cabbage) / Test C (control value class): 250 ppm spray; for Test C control value (Alternaria sooty spot on cabbage): preventive, control value class; for Test C (control value class) / Test C control value: Alternaria sooty spot on cabbage; for Test C (control value class, Alternaria sooty spot on cabbage): in vivo
From the text: [Test Example C] Alternaria Sooty Spot on Cabbage
Seeds of a test plant (cabbage variety: Shikidori) were planted followed by cultivating until the cotyledons extended.

[1] = test system: Blumeria graminis f sp. hordei; assay: Test Example D: Powdery mildew on barley; conditions: for Test D control value (powdery mildew on barley) / Test D (control value class): 250 ppm spray; for Test D control value (powdery mildew on barley): preventive, control value class; for Test D (control value class): powdery mildew on barley; for Test D control value: Powdery mildew on barley; for Test D (control value class, powdery mildew on barley): in vivo
From the text: [Test Example D] Powdery Mildew on Barley
After the sprayed dilutions were dried, conidia of Blumeria graminis f sp. hordei were inoculated to the plants by shaking off.

Plasmopara viticola = assay: Test Example G: Downy mildew on vine; conditions: for Test G control value (downy mildew on vine): 250 ppm spray (2.5 ml/pot), preventive, control value class; for Test G control value (downy mildew on vine) / Test G (control value class) / Test G control value: 7-10 days after inoculation; for Test G (control value class): downy mildew on vine, Plasmopara viticola, 250 ppm spray; for Test G control value: Downy mildew on vine, 250 ppm sprayed before inoculation; for Test G (control value class, downy mildew on vine): 250 ppm, sprayed 2.5 ml/pot before inoculation, evaluated 7-10 days after inoculation
From the text: [Test Example G] Downy Mildew on Vine
Seeds of a test plant (grape variety: Neomuscat) were planted followed by cultivating until three to four first leaves appeared. […] After the sprayed dilutions were dried, a zoosporangia suspension (1-2×10^4 zoosporangia/ml) of Plasmopara viticola was inoculated to the plants by spraying.

Row | Structure (SMILES) | Test B control value (gray mold on tomato) (Botrytis cinerea) | Test E control value (brown rust on wheat) (Puccinia recondita) | Test C control value (Alternaria sooty spot on cabbage) (Alternaia brassicicola) | Test D control value (powdery mildew on barley) [1] | Test G control value (downy mildew on vine) (Plasmopara viticola) | Test B (control value class) (Botrytis cinerea) | Test E (control value class) (Puccinia recondita) | Test C (control value class) (Alternaia brassicicola) | Test D (control value class) [1] | Test G (control value class) (Plasmopara viticola) | further results
1 | CCn1c(-c2c(F)cccc2F)c(-c2cc(OCOCCOC)ccc2Cl)ccc1=O [Compound 330] | H (H shows more than 50% of control values) | H (H shows more than 50% of control values) | L (L shows 50% or less of control values) | H (H shows more than 50% of control values) | H (H shows more than 50% of control values) | – | – | – | – | – | –
2 | CCn1c(-c2c(F)cc(OC)cc2F)c(-c2cc(F)ccc2Cl)cc(C)c1=O [Compound 479] | – | – | – | – | – | H (H shows more than 50% of control values) | H (H shows more than 50% of control values) | H (H shows more than 50% of control values) | H (H shows more than 50% of control values) | H (H shows more than 50% of control values) | –
3 | COc1ccc(Cl)c(-c2cc(Cl)c(=O)n(CC#N)c2-c2c(F)cccc2F)c1 [Compound 463] | – | – | – | – | – | H (H shows more than 50% of control values) | H (H shows more than 50% of control values) | H (H shows more than 50% of control values) | H (H shows more than 50% of control values) | H (H shows more than 50% of control values) | –
4 | CCn1c(-c2c(F)cccc2F)c(-c2cc(F)ccc2F)cc(C)c1=O [Compound 497] | – | – | – | – | – | H (H shows more than 50% of control values) | H (H shows more than 50% of control values) | H (H shows more than 50% of control values) | H (H shows more than 50% of control values) | L (L shows 50% or less of control values) | –
5 | CCn1c(-c2c(F)cccc2Cl)c(-c2cc(OC)cc(OC)c2Br)ccc1=O [Compound 151] | – | – | – | – | – | – | – | – | – | – | Test B control value (Botrytis cinerea): H (H shows more than 50% of control values); Test E control value (Puccinia recondita): H (H shows more than 50% of control values); Test C control value (Alternaia brassicicola): H (H shows more than 50% of control values); Test D control value [1]: H (H shows more than 50% of control values); Test G control value (Plasmopara viticola): H (H shows more than 50% of control values)
6 | CCn1c(-c2c(F)cc(Cl)cc2F)c(-c2cc(F)ccc2Cl)cc(Cl)c1=O [Compound 602] | – | – | – | – | – | – | – | – | – | – | Test B (control value class, gray mold on tomato) (Botrytis cinerea): H (H shows more than 50% of control values); Test E (control value class, brown rust on wheat) (Puccinia recondita): H (H shows more than 50% of control values); Test C (control value class, Alternaria sooty spot on cabbage) (Alternaia brassicicola): H (H shows more than 50% of control values); Test D (control value class, powdery mildew on barley) [1]: H (H shows more than 50% of control values); Test G (control value class, downy mildew on vine) (Plasmopara viticola): L (L shows 50% or less of control values)
7 | Cc1ccccc1-c1cc(Br)c(=O)n(C)c1-c1c(F)cccc1F [Compound 182] | – | – | – | – | – | – | – | – | – | – | Test B control value (Botrytis cinerea): H (H shows more than 50% of control values); Test E control value (Puccinia recondita): H (H shows more than 50% of control values); Test C control value (Alternaia brassicicola): H (H shows more than 50% of control values); Test D control value [1]: L (L shows 50% or less of control values); Test G control value (Plasmopara viticola): L (L shows 50% or less of control values)
8 | C=CCOc1ccc(Cl)c(-c2ccc(=O)n(C)c2-c2c(F)cccc2F)c1 [Compound 314] | H (H shows more than 50% of control values) | H (H shows more than 50% of control values) | H (H shows more than 50% of control values) | H (H shows more than 50% of control values) | H (H shows more than 50% of control values) | – | – | – | – | – | –
9 | CCn1c(-c2c(F)cc(F)cc2F)c(-c2cc(F)cc(F)c2F)cc(Cl)c1=O [Compound 465] | – | – | – | – | – | H (H shows more than 50% of control values) | H (H shows more than 50% of control values) | H (H shows more than 50% of control values) | H (H shows more than 50% of control values) | L (L shows 50% or less of control values) | –
10 | COc1ccc(Cl)c(-c2cc(Cl)c(=O)n(C3CC3)c2-c2c(F)cccc2F)c1 [Compound 498] | – | – | – | – | – | H (H shows more than 50% of control values) | H (H shows more than 50% of control values) | H (H shows more than 50% of control values) | H (H shows more than 50% of control values) | H (H shows more than 50% of control values) | –
11 | COc1cc(F)c(-c2c(-c3ccccc3F)cc(Cl)c(=O)n2C)c(F)c1 [Compound 570] | – | – | – | – | – | – | – | – | – | – | Test B (control value class, gray mold on tomato) (Botrytis cinerea): H (H shows more than 50% of control values); Test E (control value class, brown rust on wheat) (Puccinia recondita): H (H shows more than 50% of control values); Test C (control value class, Alternaria sooty spot on cabbage) (Alternaia brassicicola): H (H shows more than 50% of control values); Test D (control value class, powdery mildew on barley) [1]: H (H shows more than 50% of control values); Test G (control value class, downy mildew on vine) (Plasmopara viticola): H (H shows more than 50% of control values)
12 | O=c1ccc(-c2ccc(Cl)cc2Cl)c(-c2c(F)cccc2F)n1CC(F)F [Compound 345] | H (H shows more than 50% of control values) | H (H shows more than 50% of control values) | H (H shows more than 50% of control values) | H (H shows more than 50% of control values) | H (H shows more than 50% of control values) | – | – | – | – | – | –
13 | CCn1c(-c2c(F)cccc2F)c(-c2cc(F)ccc2Cl)cc(Br)c1=O [Compound 361] | H (H shows more than 50% of control values) | H (H shows more than 50% of control values) | L (L shows 50% or less of control values) | L (L shows 50% or less of control values) | L (L shows 50% or less of control values) | – | – | – | – | – | –
14 | COc1ccc(Cl)c(-c2ccc(=O)n(CC(F)F)c2-c2c(F)cccc2F)c1 [Compound 194, 5-(2-chloro-5-methoxyphenyl)-1-(2,2-difluoroethyl)-6-(2,6-difluorophenyl)pyridine-2(1H)-one] | H (H shows more than 50% of control values) | H (H shows more than 50% of control values) | H (H shows more than 50% of control values) | H (H shows more than 50% of control values) | L (L shows 50% or less of control values) | – | – | – | – | – | –
15 | CCn1c(-c2c(F)cc(OC)cc2F)c(-c2ccccc2Cl)cc(C)c1=O [Compound 701] | – | – | – | – | – | – | – | – | – | – | Test B (control value class, gray mold on tomato) (Botrytis cinerea): H (H shows more than 50% of control values); Test E (control value class, brown rust on wheat) (Puccinia recondita): H (H shows more than 50% of control values); Test C (control value class, Alternaria sooty spot on cabbage) (Alternaia brassicicola): H (H shows more than 50% of control values); Test D (control value class, powdery mildew on barley) [1]: H (H shows more than 50% of control values); Test G (control value class, downy mildew on vine) (Plasmopara viticola): H (H shows more than 50% of control values)
